In the supplement of paper PMC12423691 one finds AlphaScreen luminescence signal data, which are given here for 7 molecules.

B1: MYRF, Q9Y2G1 (protein)
chain: MEVVDETEALQRFFEGHDINGALEPSNIDTSILEEYISKEDASDLCFPDISAPASSASYSHGQPAMPGSSGVHHLSPPGGGPSPGRHGPLPPPGYGTPLNCNNNNGMGAAPKPFPGGTGPPIKAEPKAPYAPGTLPDSPPDSGSEAYSPQQVNEPHLLRTITPETLCHVGVPSRLEHPPPPPAHLPGPPPPPPPPPHYPVLQRDLYMKAEPPIPHYAAMGQGLVPTDLHHTQQSQMLHQLLQQHGAELPTHPSKKRKHSESPPSTLNAQMLNGMIKQEPGTVTALPLHPTRAPSPPWPPQGPLSPGPGSLPLSIARVQTPPWHPPGAPSPGLLQDSDSLSGSYLDPNYQSIKWQPHQQNKWATLYDANYKELPMLTYRVDADKGFNFSVGDDAFVCQKKNHFQVTVYIGMLGEPKYVKTPEGLKPLDCFYLKLHGVKLEALNQSINIEQSQSDRSKRPFNPVTVNLPPEQVTKVTVGRLHFSETTANNMRKKGKPNPDQRYFMLVVALQAHAQNQNYTLAAQISERIIVRASNPGQFESDSDVLWQRAQVPDTVFHHGRVGINTDRPDEALVVHGNVKVMGSLMHPSDLRAKEHVQEVDTTEQLKRISRMRLVHYRYKPEFAASAGIEATAPETGVIAQEVKEILPEAVKDTGDMVFANGKTIENFLVVNKERIFMENVGAVKELCKLTDNLETRIDELERWSHKLAKLRRLDSLKSTGSSGAFSHAGSQFSRAGSVPHKKRPPKVASKSSSVVPDQACISQRFLQGTIIALVVVMAFSVVSMSTLYVLSLRTEEDLVDTDGSFAVSTSCLLALLRPQPPGGSEALCPWSSQSFGTTQLRQSPLTTGLPGIQPSLLLVTTSLTSSAPGSAVRTLDMCSSHPCPVICCSSPTTNPTTGPSLGPSFNPGHVLSPSPSPSTNRSGPSQMALLPVTNIRAKSWGLSVNGIGHSKHHKSLEPLASPAVPFPGGQGKAKNSPSLGFHGRARRGALQSSVGPAEPTWAQGQSASLLAEPVPSLTSIQVLENSMSITSQYCAPGDACRPGNFTYHIPVSSGTPLHLSLTLQMNSSSPVSVVLCSLRSKEEPCEEGSLPQSLHTHQDTQGTSHRWPITILSFREFTYHFRVALLGQANCSSEALAQPATDYHFHFYRLCD
B2: TCF7L1, Q9HCS4 (protein)
chain: MPQLGGGGGGGGGGSGGGGGSSAGAAGGGDDLGANDELIPFQDEGGEEQEPSSDSASAQRDLDEVKSSLVNESENQSSSSDSEAERRPQPVRDTFQKPRDYFAEVRRPQDSAFFKGPPYPGYPFLMIPDLSSPYLSNGPLSPGGARTYLQMKWPLLDVPSSATVKDTRSPSPAHLSNKVPVVQHPHHMHPLTPLITYSNDHFSPGSPPTHLSPEIDPKTGIPRPPHPSELSPYYPLSPGAVGQIPHPLGWLVPQQGQPMYSLPPGGFRHPYPALAMNASMSSLVSSRFSPHMVAPAHPGLPTSGIPHPAIVSPIVKQEPAPPSLSPAVSVKSPVTVKKEEEKKPHVKKPLNAFMLYMKEMRAKVVAECTLKESAAINQILGRKWHNLSREEQAKYYELARKERQLHSQLYPTWSARDNYGKKKKRKREKQLSQTQSQQQVQEAEGALASKSKKPCVQYLPPEKPCDSPASSHGSMLDSPATPSAALASPAAPAATHSEQAQPLSLTTKPETRAQLALHSAAFLSAKAAASSSGQMGSQPPLLSRPLPLGSMPTALLASPPSFPATLHAHQALPVLQAQPLSLVTKSAH
B3: FER, P16591 (protein)
chain: MGFGSDLKNSHEAVLKLQDWELRLLETVKKFMALRIKSDKEYASTLQNLCNQVDKESTVQMNYVSNVSKSWLLMIQQTEQLSRIMKTHAEDLNSGPLHRLTMMIKDKQQVKKSYIGVHQQIEAEMIKVTKTELEKLKCSYRQLIKEMNSAKEKYKEALAKGKETEKAKERYDKATMKLHMLHNQYVLALKGAQLHQNQYYDITLPLLLDSLQKMQEEMIKALKGIFDEYSQITSLVTEEIVNVHKEIQMSVEQIDPSTEYNNFIDVHRTTAAKEQEIEFDTSLLEENENLQANEIMWNNLTAESLQVMLKTLAEELMQTQQMLLNKEEAVLELEKRIEESSETCEKKSDIVLLLSQKQALEELKQSVQQLRCTEAKFSAQKELLEQKVQENDGKEPPPVVNYEEDARSVTSMERKERLSKFESIRHSIAGIIRSPKSALGSSALSDMISISEKPLAEQDWYHGAIPRIEAQELLKKQGDFLVRESHGKPGEYVLSVYSDGQRRHFIIQYVDNMYRFEGTGFSNIPQLIDHHYTTKQVITKKSGVVLLNPIPKDKKWILSHEDVILGELLGKGNFGEVYKGTLKDKTSVAVKTCKEDLPQELKIKFLQEAKILKQYDHPNIVKLIGVCTQRQPVYIIMELVSGGDFLTFLRRKKDELKLKQLVKFSLDAAAGMLYLESKNCIHRDLAARNCLVGENNVLKISDFGMSRQEDGGVYSSSGLKQIPIKWTAPEALNYGRYSSESDVWSFGILLWETFSLGVCPYPGMTNQQAREQVERGYRMSAPQHCPEDISKIMMKCWDYKPENRPKFSELQKELTIIKRKLT
B4: ZBTB17, Q13105 (protein)
chain: MDFPQHSQHVLEQLNQQRQLGLLCDCTFVVDGVHFKAHKAVLAACSEYFKMLFVDQKDVVHLDISNAAGLGQVLEFMYTAKLSLSPENVDDVLAVATFLQMQDIITACHALKSLAEPATSPGGNAEALATEGGDKRAKEEKVATSTLSRLEQAGRSTPIGPSRDLKEERGGQAQSAASGAEQTEKADAPREPPPVELKPDPTSGMAAAEAEAALSESSEQEMEVEPARKGEEEQKEQEEQEEEGAGPAEVKEEGSQLENGEAPEENENEESAGTDSGQELGSEARGLRSGTYGDRTESKAYGSVIHKCEDCGKEFTHTGNFKRHIRIHTGEKPFSCRECSKAFSDPAACKAHEKTHSPLKPYGCEECGKSYRLISLLNLHKKRHSGEARYRCEDCGKLFTTSGNLKRHQLVHSGEKPYQCDYCGRSFSDPTSKMRHLETHDTDKEHKCPHCDKKFNQVGNLKAHLKIHIADGPLKCRECGKQFTTSGNLKRHLRIHSGEKPYVCIHCQRQFADPGALQRHVRIHTGEKPCQCVMCGKAFTQASSLIAHVRQHTGEKPYVCERCGKRFVQSSQLANHIRHHDNIRPHKCSVCSKAFVNVGDLSKHIIIHTGEKPYLCDKCGRGFNRVDNLRSHVKTVHQGKAGIKILEPEEGSEVSVVTVDDMVTLATEALAATAVTQLTVVPVGAAVTADETEVLKAEISKAVKQVQEEDPNTHILYACDSCGDKFLDANSLAQHVRIHTAQALVMFQTDADFYQQYGPGGTWPAGQVLQAGELVFRPRDGAEGQPALAETSPTAPECPPPAE
B5: SMAD4, Q13485 (protein)
chain: MDNMSITNTPTSNDACLSIVHSLMCHRQGGESETFAKRAIESLVKKLKEKKDELDSLITAITTNGAHPSKCVTIQRTLDGRLQVAGRKGFPHVIYARLWRWPDLHKNELKHVKYCQYAFDLKCDSVCVNPYHYERVVSPGIDLSGLTLQSNAPSSMMVKDEYVHDFEGQPSLSTEGHSIQTIQHPPSNRASTETYSTPALLAPSESNATSTANFPNIPVASTSQPASILGGSHSEGLLQIASGPQPGQQQNGFTGQPATYHHNSTTTWTGSRTAPYTPNLPHHQNGHLQHHPPMPPHPGHYWPVHNELAFQPPISNHPAPEYWCSIAYFEMDVQVGETFKVPSSCPIVTVDGYVDPSGGDRFCLGQLSNVHRTEAIERARLHIGKGVQLECKGEGDVWVRCLSDHAVFVQSYYLDREAGRAPGDAVHKIYPSAYIKVFDLRQCHRQMQQQAATAQAAAAAQAAAVAGNIPGPGSVGGIAPAISLSAAAGIGVDDLRRLCILRMSFVKGWGPDYPRQSIKETPCWIEIHLHRALQLLDEVLHTMPIADPQPLD
B6: SMAD1, Q15797 (protein)
chain: MNVTSLFSFTSPAVKRLLGWKQGDEEEKWAEKAVDALVKKLKKKKGAMEELEKALSCPGQPSNCVTIPRSLDGRLQVSHRKGLPHVIYCRVWRWPDLQSHHELKPLECCEFPFGSKQKEVCINPYHYKRVESPVLPPVLVPRHSEYNPQHSLLAQFRNLGQNEPHMPLNATFPDSFQQPNSHPFPHSPNSSYPNSPGSSSSTYPHSPTSSDPGSPFQMPADTPPPAYLPPEDPMTQDGSQPMDTNMMAPPLPSEINRGDVQAVAYEEPKHWCSIVYYELNNRVGEAFHASSTSVLVDGFTDPSNNKNRFCLGLLSNVNRNSTIENTRRHIGKGVHLYYVGGEVYAECLSDSSIFVQSRNCNYHHGFHPTTVCKIPSGCSLKIFNNQEFAQLLAQSVNHGFETVYELTKMCTIRMSFVKGWGAEYHRQDVTSTPCWIEIHLHGPLQWLDKVLTQMGSPHNPISSVS
B7: MTA2, O94776 (protein)
chain: MAANMYRVGDYVYFENSSSNPYLVRRIEELNKTANGNVEAKVVCLFRRRDISSSLNSLADSNAREFEEESKQPGVSEQQRHQLKHRELFLSRQFESLPATHIRGKCSVTLLNETDILSQYLEKEDCFFYSLVFDPVQKTLLADQGEIRVGCKYQAEIPDRLVEGESDNRNQQKMEMKVWDPDNPLTDRQIDQFLVVARAVGTFARALDCSSSIRQPSLHMSAAAASRDITLFHAMDTLQRNGYDLAKAMSTLVPQGGPVLCRDEMEEWSASEAMLFEEALEKYGKDFNDIRQDFLPWKSLASIVQFYYMWKTTDRYIQQKRLKAAEADSKLKQVYIPTYTKPNPNQIISVGSKPGMNGAGFQKGLTCESCHTTQSAQWYAWGPPNMQCRLCASCWIYWKKYGGLKTPTQLEGATRGTTEPHSRGHLSRPEAQSLSPYTTSANRAKLLAKNRQTFLLQTTKLTRLARRMCRDLLQPRRAARRPYAPINANAIKAECSIRLPKAAKTPLKIHPLVRLPLATIVKDLVAQAPLKPKTPRGTKTPINRNQLSQNRGLGGIMVKRAYETMAGAGVPFSANGRPLASGIRSSSQPAAKRQKLNPADAPNPVVFVATKDTRALRKALTHLEMRRAARRPNLPLKVKPTLIAVRPPVPLPAPSHPASTNEPIVLED

Some of the results follow. Binding of human transcription factors and regulators to the viral nucleoprotein by AlphaScreen, crude cell-free proteins, amounts not normalised, one pass. Fold of the Venus control; higher = more signal. No active / inactive call. Single-pass screen; sequences are the whole Swiss-Prot entries looked up by name.

The assay concerns the target nucleoprotein N of Crimean-Congo hemorrhagic fever virus. Description: AlphaScreen luminescence signal relative to Venus negative control (fold); higher = stronger binding to CCHFV N. As for the experimental part:
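AlphaScreen binding of cell-free made, FLAG-GST-tagged human transcription factors and regulators (crude translation products) to biotinylated N protein; signal as fold of the FLAG-GST-Venus control. One pass.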
On the technique in general: Alpha assays give light when donor and acceptor beads are brought close together.
As for B1, the AlphaScreen luminescence signal was 2.7. The value for B2 was 1.63; that for B3 was 1.77; that for B4 was 1.35. The figure for B5 is 3.02; for B6 it is 2.37. The value for B7 was 2.47.
